# Results from PubChem BioAssay (Tox21).
# Where “and” joins values, the source holds several entries; their conditions need not be identical. Equal entries are not always repeated. Inconclusive means that the source gave no clear call. Such entries were picked first, then a sample of the others. For part of these data: Potencies beside an inconclusive call are fits to weak or partial responses and may not hold up. Calls of active or inactive are those of the source. Unless noted, the call rests on the fitted dose curve; in most records, active means well fitted curve in the direction sought with a large enough effect in the repeat runs; inconclusive means weak or mixed curves; inactive means no such curve, though single readings can be large; an effect the other way counts as inactive or inconclusive.
# Legend:
# [1] = qHTS assay for small molecule agonists of the antioxidant response element (ARE) signaling pathway (AID 743202; active means well fitted activation curve with a large enough effect in the signal ratio in the repeat runs, not every such curve was filed as active; inconclusive means weak or mixed curves, or effect the other way; inactive means no such curve, though single readings can be large or run the other way; the % refers to the signal ratio; further: potency means the concentration at half of the fitted maximal effect); conditions: HepG2 ARE-bla reporter, beta-lactamase FRET, 16 h; activation: at 73.3 µM (top of the series) unless noted
# How it was run: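 Agonist mode reporter screen: HepG2 cells with ARE-controlled beta-lactamase are incubated with test compounds for 16 h at 37 C, and beta-lactamase activity is measured as fluorescence of cleaved B/G FRET substrate.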
# [2] = target: Peroxisome proliferator-activated receptor delta (Homo sapiens) (UniProt Q03181); experiment: qHTS assay to identify small molecule antagonists of the peroxisome proliferator-activated receptor delta (PPARd) signaling pathway (AID 743215; active means well fitted inhibition curve with a large enough effect in the signal ratio in the repeat runs, not every such curve was filed as active; inconclusive means weak or mixed curves, or effect the other way; inactive means no such curve, though single readings can be large or run the other way; the % refers to the signal ratio;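 further: cells stimulated with agonist L165041 at 300 nM final during compound exposure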); conditions: HEK293H PPARd-UAS-bla, beta-lactamase FRET ratio, antagonist, 17 h; ratio activity, negative = inhibition: at 62 µM (top of the series) unless noted
# How it was run: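 With L165041 present at 300 nM final, compounds were incubated 17 h at 37 C on PPARd UAS-bla HEK293H cells. A FRET-based beta-lactamase substrate was then applied for 2 h at room temperature and fluorescence intensity recorded.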
# [3] = target: Bile acid receptor (Homo sapiens) (UniProt Q96RI1); experiment: qHTS assay to identify small molecule antagonists of the farnesoid-X-receptor (FXR) signaling pathway (AID 743217; active means well fitted inhibition curve with a large enough effect in the signal ratio in the repeat runs, not every such curve was filed as active; inconclusive means weak or mixed curves, or effect the other way; inactive means no such curve, though single readings can be large or run the other way; the % refers to the signal ratio); conditions: HEK293T FXR-UAS-bla, beta-lactamase ratio, CDCA-stimulated, 16 h; activity change, negative = inhibition: at 62.6 µM (top of the series) unless noted
# How it was run: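 In this cell-based antagonist screen, inhibition of CDCA-driven (50 uM final) UAS-beta-lactamase expression in HEK 293T cells was measured by FRET fluorescence following 16 h compound exposure at 37 °C.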
# [4] = target: Nuclear receptor ROR-gamma (Homo sapiens) (UniProt P51449); experiment: qHTS assay to identify small molecule antagonists of the retinoid-related orphan receptor gamma (ROR-gamma) signaling pathway (AID 1159521; further: nearly all actives have a fitted effect of over 50% in size; further: potency means the concentration at half of the fitted maximal effect;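 on activity change, negative = inhibition: CHO cells with doxycycline inducible ROR-gamma driving an RORE luciferase reporter; top concentration of the series differs between compounds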)
# How it was run: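 Readout: ONE-Glo luciferase luminescence, 30 min at room temperature. System: Tet-on RORγ CHO, RORE-LUC. Sequence: compound 2 h, doxycycline 1 uM final, 16 h at 37 C.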
# [5] = qHTS assay to identify small molecule antagonists of the farnesoid-X-receptor (FXR) signaling pathway - cell viability counter screen (AID 743221; active means well fitted cell-killing curve with a large enough effect in the repeat runs, not every such curve was filed as active; inconclusive means weak or mixed curves, or effect the other way; inactive means no such curve, though single readings can be large or run the other way; further: nearly all actives have a fitted effect of over 50% in size); conditions: FXR-bla HEK293T viability, CellTiter-Glo luminescence, 16 h; activity change, negative = cytotoxicity: at 62.6 µM (top of the series) unless noted
# How it was run: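 CellTiter-Glo, 30 min RT, luminescence; same wells as the LiveBLAzer FRET read. Cells: FXR-UAS-bla HEK 293T. Treatment: compound with chenodeoxycholic acid 50 uM final, 16 h at 37 C.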
# [6] = qHTS assay to identify small molecule antagonists of the peroxisome proliferator-activated receptor delta (PPARd) signaling pathway - cell viability counter screen (AID 743213); conditions: PPARd-bla HEK293H viability, CellTiter-Glo luminescence, 17 h; viability change, negative = cytotoxic: at 62 µM (top of the series) unless noted; further: nearly all actives have a fitted effect of over 50% in size; further: potency means the concentration at half of the fitted maximal effect
# How it was run: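 Same-well viability: cells pre-incubated 5 h, dosed with compound plus 300 nM L165041, kept 17 h at 37 C, FRET substrate 2 h RT, then CellTiter-Glo 30 min RT and luminescence.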
# [7] = target: Vitamin D3 receptor (Homo sapiens) (UniProt P11473); experiment: qHTS assay to identify small molecule agonists of the vitamin D receptor (VDR) signaling pathway (AID 743222; calls by dose curve; further: potency means the concentration at half of the fitted maximal effect); conditions: HEK293T VDR-UAS-bla, beta-lactamase FRET ratio, 16 h; activation: at 63.5 µM (top of the series) unless noted
# How it was run: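 VDR-bla cells were seeded, left 4 h, treated with compounds in DMSO for 16 h, incubated 2 h at RT with B/G FRET substrate, and read for fluorescence.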
# [8] = target: Vitamin D3 receptor (Homo sapiens) (UniProt P11473); experiment: qHTS assay to identify small molecule antagonists of the vitamin D receptor (VDR) signaling pathway (AID 743223; active means well fitted inhibition curve with a large enough effect in the signal ratio in the repeat runs, not every such curve was filed as active; inconclusive means weak or mixed curves, or effect the other way; inactive means no such curve, though single readings can be large or run the other way; the % refers to the signal ratio; further: potency means the concentration at half of the fitted maximal effect); conditions: VDR-UAS-bla HEK293T, beta-lactamase FRET ratio, 16 h; activity change, negative = inhibition: at 61 µM (top of the series) unless noted
# How it was run: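 After VDR-bla cells are plated and left 4 h at 37C, DMSO-dissolved compounds and 3 nM (final) calcitriol agonist are added. Incubation continues 16 h at 37C; FRET beta-lactamase substrate then develops 2 h at room temperature.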
# [9] = qHTS assay to identify small molecule antagonists of the vitamin D receptor (VDR) signaling pathway - cell viability counter screen (AID 743225); conditions: VDR-bla HEK293T viability, CellTiter-Glo luminescence, 16 h; viability change, negative = cytotoxic: at 61 µM (top of the series) unless noted; further: nearly all actives have a fitted effect of over 50% in size; further: potency means the concentration at half of the fitted maximal effect
# How it was run: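 Cytotoxicity toward the VDR-bla HEK 293T line was scored by ATP-based CellTiter-Glo luminescence, read in the wells already used for the beta-lactamase readout after 16 h compound treatment under 3 nM 1-alpha,25-dihydroxyvitamin D3 stimulation.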
# [10] = qHTS assay to identify small molecule agonists of the farnesoid-X-receptor (FXR) signaling pathway - cell viability counter screen (AID 743218); conditions: FXR-bla HEK293T viability, CellTiter-Glo luminescence, 16 h; viability change, negative = cytotoxic: at 62.6 µM (top of the series) unless noted; further: nearly all actives have a fitted effect of over 45% in size; further: potency means the concentration at half of the fitted maximal effect
# How it was run: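 After 16 h at 37 C with test compounds, FXR-bla HEK 293T cells were given LiveBLAzer B/G substrate for 2 h at RT and then CellTiter-Glo; luminescence was taken after 30 min.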
# [11] = target: Bile acid receptor (Homo sapiens) (UniProt Q96RI1); experiment: qHTS assay to identify small molecule agonists of the farnesoid-X-receptor (FXR) signaling pathway (AID 743220; active means well fitted activation curve with a large enough effect in the signal ratio in the repeat runs, not every such curve was filed as active; inconclusive means weak or mixed curves, or effect the other way; the % refers to the signal ratio; further: potency means the concentration at half of the fitted maximal effect); conditions: HEK293T FXR-UAS-bla, beta-lactamase FRET ratio, 16 h; activation: at 62.6 µM (top of the series)
# How it was run: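 Beta-lactamase reporter under UAS control in GeneBLAzer FXR HEK 293T cells (5000/well) measured with LiveBLAzer FRET substrate after 2 h at room temperature. Compound exposure lasted 16 h at 37C.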
# On the % scale 0 is the no-effect control and ±100 the full control effect; tags describe the fitted curve by direction and shape or compound fluorescence and quenching.
# Chain of UniProt Q96RI1 (Q96RI1 whole entry, looked up): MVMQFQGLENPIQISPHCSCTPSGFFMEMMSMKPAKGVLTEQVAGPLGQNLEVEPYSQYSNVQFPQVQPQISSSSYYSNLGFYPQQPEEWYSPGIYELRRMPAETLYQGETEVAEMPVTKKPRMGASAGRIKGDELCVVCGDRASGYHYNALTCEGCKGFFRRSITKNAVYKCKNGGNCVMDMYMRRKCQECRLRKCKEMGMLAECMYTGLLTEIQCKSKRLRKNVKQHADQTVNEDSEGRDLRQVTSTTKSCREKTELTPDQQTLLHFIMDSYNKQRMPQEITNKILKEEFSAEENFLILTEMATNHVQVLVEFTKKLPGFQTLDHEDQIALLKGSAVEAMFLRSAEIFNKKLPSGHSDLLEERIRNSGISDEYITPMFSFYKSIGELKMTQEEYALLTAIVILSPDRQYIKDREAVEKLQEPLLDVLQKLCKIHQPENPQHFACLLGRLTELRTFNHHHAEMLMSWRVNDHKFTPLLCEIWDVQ
# Chain of UniProt Q03181 (Q03181 whole entry, looked up): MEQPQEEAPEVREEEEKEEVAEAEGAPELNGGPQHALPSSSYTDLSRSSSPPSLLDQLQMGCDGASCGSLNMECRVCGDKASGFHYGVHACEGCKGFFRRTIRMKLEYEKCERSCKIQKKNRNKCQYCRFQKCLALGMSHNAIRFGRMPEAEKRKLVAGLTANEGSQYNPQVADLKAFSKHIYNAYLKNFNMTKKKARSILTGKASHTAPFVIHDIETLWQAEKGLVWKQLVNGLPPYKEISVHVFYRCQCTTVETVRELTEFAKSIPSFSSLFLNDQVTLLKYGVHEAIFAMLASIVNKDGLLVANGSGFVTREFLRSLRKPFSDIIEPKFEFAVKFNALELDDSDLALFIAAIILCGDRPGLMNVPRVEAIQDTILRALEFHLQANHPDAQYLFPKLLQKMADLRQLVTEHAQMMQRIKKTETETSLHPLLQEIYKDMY
# Chain of UniProt P11473 (P11473 whole entry, looked up): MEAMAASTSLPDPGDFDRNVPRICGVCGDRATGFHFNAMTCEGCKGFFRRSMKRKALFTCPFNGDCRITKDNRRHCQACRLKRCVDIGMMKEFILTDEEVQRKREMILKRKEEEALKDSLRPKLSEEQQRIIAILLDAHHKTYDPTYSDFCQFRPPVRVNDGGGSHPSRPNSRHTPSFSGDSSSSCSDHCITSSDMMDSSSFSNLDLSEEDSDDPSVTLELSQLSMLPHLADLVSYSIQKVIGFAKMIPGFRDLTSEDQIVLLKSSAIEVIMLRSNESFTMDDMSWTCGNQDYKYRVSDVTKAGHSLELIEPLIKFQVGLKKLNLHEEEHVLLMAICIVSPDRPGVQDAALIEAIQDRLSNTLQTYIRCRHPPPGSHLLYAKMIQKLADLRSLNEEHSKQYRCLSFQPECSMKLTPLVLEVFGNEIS
smiles,measurement,setting,value
C[N+]1(CC2COC(c3ccccc3)(c3ccccc3)O2)CCCCC1 (stereo not given),Potency,[1],inactive
same,Potency,[2],inactive
same,Potency,[3],inactive
same,"activity change, negative = inhibition",[4],inactive: 7.79% [at 19 µM]
Cc1nnc(SCC2=C(C(=O)O)N3C(=O)[C@@H](NC(=O)Cn4cnnn4)[C@H]3SC2)s1,Potency,[1],"inconclusive: 26.6 µM [rising, partial curve]"
same,Potency,[5],inactive
same,Potency,[4],"inconclusive: 1.06 µM [inhibitor, single point]"
O=C(O)c1nc(Cl)c(Cl)c(Cl)c1Cl,Potency,[1],"inconclusive: 0.154 µM [falling, partial curve, poor fit]"
same,Potency,[6],"inconclusive: 5.49 µM [cytotoxic, single point]"
same,Potency,[7],"inconclusive: 30.9 µM [rising, partial curve, poor fit]"
same,Potency,[8],"inconclusive: 27.5 µM [activator, partial curve]"
same,Potency,[9],"inconclusive: 54.9 µM [rising, partial curve, poor fit]"
same,Potency,[4],"inconclusive: 2.73 µM [inhibitor, full curve]"
COc1ccccc1N1CCN(CCCNc2cc(=O)n(C)c(=O)n2C)CC1,Potency,[1],"inconclusive: 18.8 µM [rising, partial curve, poor fit]"
same,Potency,[10],"inconclusive: 29.8 µM [cytotoxic, single point]"
same,Potency,[8],inactive
same,Potency,[9],inactive
same,Potency,[4],"inconclusive: 1.19 µM [inhibitor, single point]"
O=[N+]([O-])c1ccc(/C=N\O)o1,Potency,[1],"inconclusive: 2.11 µM [falling, partial curve, poor fit]"
same,Potency,[6],"inconclusive: 33.5 µM [rising, partial curve, poor fit]"
same,Potency,[4],inactive
Cc1ncc([N+](=O)[O-])n1CC(C)O (stereo not given),Potency,[1],inactive
same,Potency,[6],inactive
same,Potency,[2],inactive
same,Potency,[4],inactive
C[C@@H]1C[C@H]2[C@@H]3CCC4=CC(=O)C=C[C@]4(C)[C@@]3(F)[C@@H](O)C[C@]2(C)[C@@]1(O)C(=O)COC(=O)c1ccncc1,Potency,[1],inactive
same,"viability change, negative = cytotoxic",[6],inconclusive: -10.1% [cytotoxic]
same,"ratio activity, negative = inhibition",[2],inconclusive: -25.2%
same,Potency,[10],"inconclusive: 21.1 µM [cytotoxic, partial curve, poor fit]"
same,Potency,[8],inactive
same,Potency,[4],"inconclusive: 26.6 µM [inhibitor, single point]"
NCC(=O)CCC(=O)O,activation,[1],inconclusive: 22%
same,Potency,[11],inactive
same,Potency,[8],inactive
same,Potency,[4],"inconclusive: 2.37 µM [inhibitor, full curve, poor fit]"
Fc1ccc(Br)cc1,Potency,[1],inactive
same,Potency,[6],"inconclusive: 0.0977 µM [rising, full curve, poor fit]"
same,Potency,[9],"inconclusive: 0.248 µM [cytotoxic, partial curve, poor fit]"
same,Potency,[4],"inconclusive: 77.7 µM [inhibitor, single point]"
CCC(C)(C)C,Potency,[1],inactive
same,Potency,[3],inactive
same,Potency,[4],inactive
C=C(C)C(=O)Nc1ccc(Cl)c(Cl)c1,Potency,[1],active: 19.5 µM and active: 27.2 µM
same,Potency,[7],"inconclusive: 55.5 µM [rising, partial curve, poor fit]"
same,"activity change, negative = inhibition",[8],inconclusive: 8.71% [at 78.8 µM]
same,Potency,[4],"inconclusive: 69.3 µM [inhibitor, partial curve, poor fit]"
CC1CC(O)CC(C)(C)C1 (stereo not given),activation,[1],inconclusive: 5.57%
same,Potency,[10],"inconclusive: 19.5 µM [cytotoxic, full curve]"
same,Potency,[11],"inconclusive: 54.9 µM [rising, partial curve, poor fit]"
same,Potency,[4],"inconclusive: 54.5 µM [inhibitor, partial curve, poor fit]"
CC(C)=CCC[C@H](C)CCO,Potency,[1],inactive
same,Potency,[10],inactive
same,Potency,[4],inactive
CCc1ccc(CCOc2ccc(CC3SC(=O)NC3=O)cc2)nc1 (stereo not given),Potency,[1],active: 17.2 µM and inconclusive: 23.7 µM
same,"ratio activity, negative = inhibition",[2],inconclusive: 14.8% and inconclusive: 12.7%
same,Potency,[7],"inconclusive: 30.9 µM [fluorescent, partial curve] and inconclusive: 5.31 µM [fluorescent, partial curve, poor fit]"
same,"activity change, negative = inhibition",[8],inconclusive: 52.4% and inconclusive: 19.3%
same,Potency,[9],inactive
same,Potency,[4],"inconclusive: 30.6 µM [inhibitor, partial curve, poor fit] and inconclusive: 4.22 µM [inhibitor, single point]"
CCCCCCC=O,activation,[1],inconclusive: 21.5% [at 94.8 µM]
same,Potency,[7],inactive
same,Potency,[4],inactive
Nc1nccs1,Potency,[1],inactive
same,Potency,[10],inactive
same,Potency,[8],inactive
same,Potency,[4],"inconclusive: 0.969 µM [inhibitor, partial curve, poor fit]"
CCC(C)=O,Potency,[1],inactive
same,Potency,[2],inactive
same,Potency,[4],"inconclusive: 27.1 µM [inhibitor, single point]"
O=C(O)c1cccc(Cl)c1Cl,Potency,[1],inactive
same,Potency,[6],"inconclusive: 0.195 µM [cytotoxic, single point]"
same,Potency,[2],inactive
same,Potency,[10],inactive
same,Potency,[8],inactive
same,Potency,[4],"inconclusive: 0.486 µM [inhibitor, full curve]"
